Measurements reported in the RNAGym collection of RNA variant scans (doi:10.1073/pnas.2313332121).
Variants at the background level are over-represented here.

B1: TPR 5TU (parent)
chain: GGAUCUUCUCGAUCUAACAAAAAAGACAAAUCUGCCACAAAGCUUGAGAGCAUCUUCGGAUGCAGAGGCGGCAGCCUUCGGUGGCGCGAUAGCGCCAACGUUCUCAACUAUGACACGCAAAACGCGUGCUCCGUUGAAUGGAGUUUAUCAUG

Variants of: B1
Test: polymerase ribozyme fitness, log enrichment relative to wild type (log ratio); higher = more active; in vitro selection for triplet polymerase activity
How it was run: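 Mutant libraries of each subunit of a heterodimeric triplet polymerase ribozyme were built by PCR and transcribed. Each library went through one round of in vitro selection in triplicate: annealing with biotinylated primer, partner subunit and triplets, frozen incubation at −7 °C, gel excision of extended constructs, streptavidin-bead capture and RT-PCR. Input and output libraries were Illumina-sequenced; only genotypes with ≥10 input reads and ≥1 read per output were kept. Fitness is log2(genotype enrichment/wild-type enrichment), using inverse-variance-weighted replicate averages.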

Variant	polymerase ribozyme fitness (log ratio)
A49C G65A C114G G136U	≤ -4.2
A49C C54U A110G A138G A150C	≤ -4.2
A49C A60G C69A G128U C131U U134C G141U	≤ -4.2
A49C C57A C85A U127G C132A A142G	≤ -4.2
G50A A52C C95A U102G C105A U139C	≤ -4.2
G48A A49C G58U C79U C85A A98G	≤ -4.2
A49U C51U U55A G71A U82A G83C U102G A120U G136A U148A	≤ -4.2
A47U G58U U61A C95U C114A G141U A147C	≤ -4.2
A49C A52C C96A U102G U127C U148A	≤ -4.2
G48A C57U G83C U101C	-2.63
A49C U55A G65A A121G C131U	≤ -4.2
G48U G83C C108G U135G A150G	≤ -4.2
G48U U82G C96G	-1.48
A49C U55A	≤ -4.2
A49C C93G G140A	≤ -4.2
A49C A106G	-4.12
A49C G141C	-4.14
A49U U151C	≤ -4.2
A49C G68C G81C C93A G126A	≤ -4.2
A47U G59C G68U G80A C95U C103A G143U	≤ -4.2
A47U U56A C95U A119U U135A	-2.15

Variant	polymerase ribozyme fitness (log ratio)
G50C A64G A89C G94C U101G A106U G133U	-4.12
A49C C69G C96A C108U	≤ -4.2
A49U U61A C63G C76A C96A G141A U146C	≤ -4.2
G50A G68A	≤ -4.2
G48A G62A G67A G80A G92A A113U C131A A137C U146G	≤ -4.2
A49G G81C A91G A98U	-2.95
A49C A121U U144A	≤ -4.2
G50A A52C U53A C96A G141U	≤ -4.2
G50A C125U	-1.35
A47U U55A A89G A120U U144G	-0.697
A47U C51A C96U G141C U144C	≤ -4.2
A49U G50C G65C A97U U101G C129G G143U	≤ -4.2
G48C A49G C51A C87G C93U A97C	≤ -4.2
G48A U90C C132A	≤ -4.2
A49U U53A G92U C116A	-1.33
A49C G133A	≤ -4.2
A49U G67C C72U G92U C99G	≤ -4.2
G50A G84U G141U	-3.31
G50A G84U	-1.58
G50A G71A C96G C105A	≤ -4.2
A49U G50C G71C G92C C103A G117C	≤ -4.2

Variant	polymerase ribozyme fitness (log ratio)
G48C A60G C76G G94C U104C C131U	≤ -4.2
G48C A60G C114G U144G C149A	≤ -4.2
A49C U56A C85A C103A G128A	≤ -4.2
A49U G50A G84A C95G U146C	-1.2
A49G G92U	0.21
A49U G62A U90C A110G U134A A142C U148A	≤ -4.2
A49G C87G U148C	≤ -4.2
G48C U55A C57G A91C C95A	≤ -4.2
G50A G88C C95U C99U G128A	≤ -4.2
G50A C85U C96U C105U G141A	-1.94
A49U C54A G94U C95G A137U	≤ -4.2
A49C C69G C96A	≤ -4.2
G48C G84A G141C	≤ -4.2
G48C G50U G92C U145G	-4.11
A49C A60U G65C G136U G143C	≤ -4.2
A49C G92C A137U G140U	≤ -4.2
A49G C96G	-1.61
A49U A91U A97C U102A C105G U146C	≤ -4.2
G50C A73G C87A	≤ -4.2
A49G G68C G86A C116A	≤ -4.2
G50A G68A C87G C93U A97U	≤ -4.2

Variant	polymerase ribozyme fitness (log ratio)
G48A C57U G62A A89U C103A U145C	≤ -4.2
A47U C76U C93A	≤ -4.2
A49G C93G U102G A106G	≤ -4.2
G50C A122C G143A	-4.06
G50A G58C C76U C85G G141U	-4.1
G48A C75G	≤ -4.2
G48C A91G A98U C105G A106C A113C U146A	≤ -4.2
G50A G70A	-3.76
A49C G50U C96G	≤ -4.2
A49U A121U C149G	≤ -4.2
A49G U61A A64C G65U G67A A73C C96G U134C	≤ -4.2
A49G U53A G83A G94U	≤ -4.2
G50A C57A C87G C93G A110U A121U	≤ -4.2
G50C C51U A137G	≤ -4.2
G48U C63U A64U	≤ -4.2
A49C A52G C72A	≤ -4.2
G48U G83A U134A G136A	-2.44
G48A C103G A115U	≤ -4.2
A49C A73G A91G C108U A119C C125A	≤ -4.2
A49G G140A	-3.77
G50A A150U	-1.41
